Some entries of the source have several records that differ or are many. The list is limited to them. The source may hold further records. The records of an entry repeat one measurement in other runs, samples, wells, individuals or studies. Brackets with × give the number of equal values in this list.
System: DMS-114 complex spheroids with HUVEC/MSC, growth % test/control
Assay: Anticancer human tumor DMS-114 cell line growth inhibition [AhR];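 also: spheroids exposed to agents for 7 days before readout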
Settings: for IC50: compound alone; for viability, T/C: stronger effect = lower value
Excerpt: Multicellular complex tumor spheroid response to aryl hydrocarbon receptor antagonists in combination with a variety of drugs and investigational agents in selected tumor cell lines
The current study was undertaken to assess response to aryl hydrocarbon receptor antagonists in combination with standard-of-care drugs and investigational agents in solid tumor complex spheroid models. Complex spheroids include a stromal component modeled by human endothelial cells (HUVEC) and fibroblasts modeled by human mesenchymal stem cells (MSCs). The concentration ranges selected for each drug and investigational agent were based upon clinically achievable concentrations if the clinical Cmax of the agent was known.
Compounds. The drugs and investigational agents: BAY 2416964 (NSC825713), GNF351 (NSC835774), CH-223191 (NSC835775), CPI-455 (NSC825282), aza-TdCyd (NSC777586), decitabine (NSC127716), belinostat (NSC758774), entinostat (NSC756642), pevonedistat (NSC761192), tazemetostat (NSC777109), talazoparib (NSC765396), olaparib (NSC753686), selinexor (NSC780203), nedisertib (M3814, NSC802822), bortezomib (NSC756655), venetoclax (NSC766270), doxorubicin (NSC123127), elimusertib (BAY189344, NSC800525), ceralasertib (AZD6738, NSC777638), TAK-243 (NSC785004), alisertib (NSC759677), etoposide (NSC141540), topotecan (NSC609699), eribulin (NSC707389), gemcitabine (NSC613327), carboplatin (NSC241240), cisplatin (NSC119875), and SN-38 (NSC673596) were obtained from the National Cancer Institute (NCI) Developmental Therapeutics Program Chemical Repository (32). The FDA-approved anticancer drug set is available from the Developmental Therapeutics Program at https://dtp.cancer.gov/organization/dscb/obtaining/available plates.htm. […] The stock solutions were prepared in dimethyl sulfoxide (DMSO, Sigma-Aldrich, St. Louis, MO, cat. D2650), except for the platinum compounds which were prepared in saline (Quality Biological, Gaithersburg, MD, cat. 114-055-101), at 800-fold the tested concentration and stored at -70 degrees C prior to their use. All drugs and investigational agents were tested over a range starting from a high concentration at or near the clinical Cmax and decreasing in half-log increments. If the clinical Cmax for an agent had not been determined, the highest concentration tested was 10 microM (Table 1).
Cell Culture. All cells were maintained in an incubator at 37 degrees C and 5% CO2 with 95% humidity. The PDC lines were cultured according to standard operating procedures established by the NCI PDMR (https://pdmr.cancer.gov). Briefly, all PDCs were thawed and cultured in Matrigel-coated flasks prepared with a working solution of 1X Ham's F-12 nutrient mix, without supplementation (Invitrogen, Waltham, MA, cat. 11765054), 100 U/mL penicillin-streptomycin (Invitrogen, cat. 15140122), and 2.5% Matrigel (Corning Inc., Corning, NY, cat. 354248) for the first three passages. All PDCs were cultured in complete DMEM/F-12 media containing advanced DMEM/F-12 (Invitrogen, cat. 12634028), 4.9% defined fetal bovine serum, heat inactivated (HyClone Laboratories Inc., Logan, UT, cat. SH30070.03HI), 389 ng/mL hydrocortisone (Sigma-Aldrich, cat. H4001), 9.7 ng/mL human EGF recombinant protein (Invitrogen, cat. PHG0313), 23.4 microg/mL adenine (Sigma-Aldrich, cat. A2786), 97.3 U/mL penicillin-streptomycin (Invitrogen, cat. 15140122), 1.9 mM L-glutamine (Invitrogen, cat. 25030081), and 9.7 microM Y-27632 dihydrochloride (Tocris Bioscience, Bristol, United Kingdom, cat. 1254). The PDCs were cultured in complete DMEM/F12 media without 10 microM Y-27632 dihydrochloride for at least two passages prior to the screen. The established cell lines NCI-H1341 and […] were cultured in DMEM/F-12, HEPES (Invitrogen, cat. 11330032), 5% defined fetal bovine serum (HyClone Laboratories Inc., cat. SH30070.03), ITS premix universal culture supplement [insulin (5 microg/mL), transferrin (5 microg/mL), and selenious acid (5 ng/mL)] […]

For `CC1COCCN1c1cc(-c2ccnn2C)c2ccnc(-c3ccn[nH]3)c2n1` (configuration not stated), the IC50 was 76.6 nM, 36 nM, 538 nM.

In the case of `COc1cc(Nc2ncc3c(n2)-c2ccc(Cl)cc2C(c2c(F)cccc2OC)=NC3)ccc1C(=O)O`, the IC50 is reported as < 31.6 nM (2×) and > 10 µM.

With `Cc1cncc(-c2nc(NCCc3c[nH]c4ccccc34)c3ncn(C(C)C)c3n2)c1` the viability, T/C (compound alone 0.1 µM) was 98.4, 90, 96, 94.3, 109, 98.6, 106 (2×), 94.6, 102, 99.1, 95.9, 95.8, 103, 98.1, 101, 96.7, 91.5, 100, 81.2%, the viability, T/C (compound alone 0.316 µM) was 93.8, 94.5, 88.2, 118, 102, 99.5, 92.6, 96.3, 94.7, 100, 97.9, 95.1, 104, 88, 90, 87.3, 95.6, 116, 95.4, 103% and the viability, T/C (compound alone 1 µM) was 95, 88.9, 96.6, 91.3, 123, 94.5, 111 (2×), 108 (2×), 92.6, 105, 109, 93.4, 88.4, 97.2, 97.3, 106, 91.2, 102%. For the same molecule, the viability, T/C (compound alone 3.16 µM) was 101 (2×), 81.3, 95.1, 88.6, 95.4, 99, 74.6, 86.2, 97.2, 93.6, 85, 108, 86.5 (2×), 83, 98.7, 85.3, 89, 97.6%, the viability, T/C (compound alone 10 µM) was 46, 44.2, 45.2, 49, 84.2, 41.2, 32.5, 36.4, 40.8, 38.7, 59.3, 50.2, 58.4, 53.8, 61.1, 53.5, 55.5, 58.8, 52.6, 61.9% and the IC50 (run of 07/18/2022) was 9.14 µM, 8.38 µM, 8.92 µM, 9.8 µM, > 10 µM, 8.29 µM, 7.4 µM, 6.63 µM, 7.95 µM, 8.01 µM, 6.49 µM, 7.33 µM, 7.8 µM, 8.73 µM.

With `CC(CO)NC(=O)c1cc(-c2ccc(Cl)cc2)nn(-c2cnn(C)c2)c1=O` (configuration not stated) the viability, T/C (compound alone 0.316 µM) was 95.7 (2×), 98.1, 95.2, 89.4, 97.8, 89.6, 96.4, 90.9, 89.9, 87.1, 104, 113, 99, 93.1, 90, 118, 91.3, 109, 97.2, 102%, the viability, T/C (compound alone 3.16 µM) was 96.4, 90.7, 96.7, 115, 83.7, 101, 107, 95.6, 92.2, 102 (2×), 95.7, 91.5, 97, 103 (2×), 94.6, 92.5, 87.5% and the viability, T/C (compound alone 10 µM) was 100, 92.9, 106 (2×), 90.4, 94.3, 82.2, 99.8, 93.7 (2×), 102 (3×), 95.2, 120, 96.5, 103, 92.2, 89.5%.

In the case of `Cc1ccccc1N=Nc1ccc(NC(=O)c2ccnn2C)c(C)c1`, the viability, T/C (compound alone 3.16 µM) is reported as 92.2, 92.6, 107, 88.2, 110, 93.8, 86.9, 103, 94.2, 94, 99.2, 92, 105, 114, 104, 99.8, 96.9, 92.8, 101, 96.1%.

Reference: PubChem BioAssay AID1919008 (Molecular Pharmacology Branch, DTP, NCI, 2023)
